From patent publication US20220000984A1 (JIANGSU GENSCIENCES, published 2022)

Biological target: GLP-1 receptor (GLP-1R) on HEK293/CRE-Luc/GLP1R cells (UniProt P43220 24-463, limits assumed)
Assay: cell-based or functional assay

relative activity compared with dulaglutide (CRE-luciferase reporter, HEK293/CRE-Luc/GLP1R cells) [%]	Binder
112	GLP1-L1-Fc4-L2-STG3 (Fc fusion) HGEGTFTSDVSSYLEEQAAKEFIAWLVKGGGGGGGSGGGGSGGGGSA[human IgG4 Fc with S228P F234A L235A (EU numbers) not listed]GGGGSGGGGSLPETGGG
21.5	GLP1-L1-Fc4-L2-STG3 crosslinked with 40 kDa PEG (Fc fusion, 40 kDa PEG on the added C-terminal GGGAA (GGGAA-PEG joined by sortase A to the T of LPET)) HGEGTFTSDVSSYLEEQAAKEFIAWLVKGGGGGGGSGGGGSGGGGSA[human IgG4 Fc with S228P F234A L235A (EU numbers) not listed]GGGGSGGGGSLPETGGGAA
